Out of some 310,000 compounds screened, about 14,000 (4.5%) showed an effect of 50% or more. The effect is printed as a negative number. The list shows a part of the results.
The compounds below were run against human ether-à-go-go-related gene (hERG) potassium channel (human, UniProt Q12809) (assay: primary screen, population patch clamp on CHO cells stably expressing hERG).
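Further: peak tail current of the secondary pulse compared with the same well before compound.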

Chain of human ether-à-go-go-related gene (hERG) potassium channel (Q12809 whole entry, looked up): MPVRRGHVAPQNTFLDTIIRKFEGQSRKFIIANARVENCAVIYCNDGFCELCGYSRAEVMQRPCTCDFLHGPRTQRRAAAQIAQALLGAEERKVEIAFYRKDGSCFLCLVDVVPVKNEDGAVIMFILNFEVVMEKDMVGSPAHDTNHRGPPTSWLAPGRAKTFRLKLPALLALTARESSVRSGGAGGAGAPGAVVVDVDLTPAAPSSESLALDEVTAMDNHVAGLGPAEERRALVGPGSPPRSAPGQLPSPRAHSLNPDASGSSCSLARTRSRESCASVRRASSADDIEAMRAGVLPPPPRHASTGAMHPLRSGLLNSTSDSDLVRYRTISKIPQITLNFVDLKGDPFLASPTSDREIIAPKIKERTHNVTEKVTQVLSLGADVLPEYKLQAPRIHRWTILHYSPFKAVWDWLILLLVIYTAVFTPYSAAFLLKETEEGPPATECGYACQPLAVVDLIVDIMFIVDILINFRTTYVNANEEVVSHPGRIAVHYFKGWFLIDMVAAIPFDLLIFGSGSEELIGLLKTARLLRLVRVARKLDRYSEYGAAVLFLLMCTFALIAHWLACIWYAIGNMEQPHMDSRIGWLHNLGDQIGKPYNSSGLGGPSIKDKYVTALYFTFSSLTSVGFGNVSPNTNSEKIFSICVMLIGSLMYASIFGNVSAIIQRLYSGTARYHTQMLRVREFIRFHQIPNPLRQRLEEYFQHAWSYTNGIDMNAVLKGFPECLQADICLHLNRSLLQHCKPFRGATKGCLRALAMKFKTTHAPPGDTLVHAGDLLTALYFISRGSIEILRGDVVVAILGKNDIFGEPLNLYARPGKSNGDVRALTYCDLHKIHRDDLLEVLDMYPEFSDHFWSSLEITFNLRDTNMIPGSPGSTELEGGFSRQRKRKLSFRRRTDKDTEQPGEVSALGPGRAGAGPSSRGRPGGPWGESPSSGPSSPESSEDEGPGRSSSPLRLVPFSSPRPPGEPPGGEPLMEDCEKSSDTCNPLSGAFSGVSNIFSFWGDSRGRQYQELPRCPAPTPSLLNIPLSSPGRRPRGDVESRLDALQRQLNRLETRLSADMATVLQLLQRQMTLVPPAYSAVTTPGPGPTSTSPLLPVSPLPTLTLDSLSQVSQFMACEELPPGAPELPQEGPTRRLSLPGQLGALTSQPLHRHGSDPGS

Point of comparison: CCN(CC)S(=O)(=O)c1cccc(-c2nnc(SCC(=O)N3CCC(C(=O)O)CC3)n2N)c1, “hERG current change (%, negative = inhibition) at 10uM” value -4.23%. Against it:
- O=C(CCS(=O)(=O)c1cccc2nsnc12)NC1CCCCC1 — higher, 13.4%
- CCOC(=O)C1(CC2CC2)CCN(Cc2cnc(-c3ccccc3C)nc2)CC1 — lower, -10.4%
- CCOC(=O)C(O)(c1ccc(NC(=S)NC(=O)c2ccc(Cl)cc2Cl)cc1)C(F)(F)F (stereo not drawn) — higher, 10.1%
- C/C(=N\NC(=O)CC#N)c1cc2ccccc2oc1=O — higher, 5.92%
- COc1ccc(/C=N/Nc2nc(-c3ccc(C)cc3)c(NC(C)=O)s2)cc1 — higher, 5.16%
- Cn1ccc(C(=O)N2CCCc3ccccc32)n1 — higher, 14.9%
- C(=N\N(c1ccccc1)c1ccccc1)/c1ccc(N2CCOCC2)s1 — higher, -1.1%
- CCN(CC(=O)NC(=O)NCc1ccco1)Cc1ccccc1 — lower, -12.4%
- CNC(=O)[C@@H]1C[C@H]1[C@@H](NC(=O)OCc1ccccc1)c1ccccc1 — lower, -48.3%
- CSc1ccccc1NC(=O)Nc1cccc(Cl)c1 — higher, -1.05%
- COc1ccc(NC(=O)CN(C)S(=O)(=O)c2ccc(Cl)cc2)cn1 — higher, -1.35%
- Oc1cc(OCc2ccccc2)ccc1-c1[nH]ncc1-c1ccccc1 — higher, 20.4%
- O=C(c1c[nH]c2ccc(S(=O)(=O)N3CCOCC3)cc2c1=O)N1CCCC1 — lower, -6.08%
- O=C(NCc1ccco1)C(=O)NCC1OCCN1S(=O)(=O)c1cc(F)ccc1F (stereo not drawn) — higher, -2.42%
- CC(=O)NC(CC(=O)N(Cc1ccccc1)c1ccc(C)cc1)c1ccccc1 (stereo not drawn) — higher, -3.88%
- CC1(C)CC(=O)C(C#N)=C(NCCCO)C1 — higher, 7.86%
- O=C(Oc1ccc(N2C(=O)CCC2=O)cc1)c1ccccc1 — higher, 10.1%
- O=[N+]([O-])c1ccccc1/C=N/N1CCN(c2ccccn2)CC1 — higher, 6.12%
- O=C(c1ccc(-c2cccc(C(F)(F)F)c2)o1)N1CCCC(C(F)(F)F)C1 (stereo not drawn) — lower, -14.4%
- COc1ccc(C(=O)OCC(=O)NCC2CCCO2)c(F)c1 (stereo not drawn) — higher, 19.4%
- Cc1csc(NC(=O)C(F)(F)F)n1 — higher, 15.6%
- OCCN(CCO)c1ccc2ccccc2c1 — higher, 12.4%
- CCOCC(=O)Nc1cc(Cl)ccc1C — higher, 14.5%
- COc1ccc(C(=O)C2CCCN(Cc3cccn3-c3cccnc3)C2)cc1OC (stereo not drawn) — lower, -62.9%
- Cc1cc(C)n(CCN(C)C(=O)C2CCC(=O)N(CCc3cccc(F)c3)C2)n1 (stereo not drawn) — higher, 3.51%
- CCc1ccc(C(=O)NNc2ccc(Cl)cc2)cc1 — higher, -4.07%
- CN(C)c1ccc(NC(=O)CCn2c(=S)oc3ccccc32)cc1 — higher, 18.1%
- Cn1c(=O)n(C)c2cc(NS(=O)(=O)c3ccc(F)cc3)ccc21 — higher, 1.38%
- CC1CCC2(CC1)NC(=O)N(CC(=O)N1CCN(C(=O)c3cccs3)CC1)C2=O (stereo not drawn) — lower, -9.44%
- CC1CN(/C(=N\S(=O)(=O)c2ccccc2)c2ccccc2)CC(C)O1 (stereo not drawn) — lower, -8.3%
- Cc1nn(-c2nc3ccccc3[nH]2)c(=O)c2ccccc12 — higher, 7.4%
- CN(Cc1ccccc1)Cc1nc2scc(-c3ccccc3)c2c(=O)[nH]1 — higher, 10.7%
- COc1cc([N+](=O)[O-])ccc1NC(=O)CCCOc1cc(C)ccc1C — higher, -3.08%
- O=C(NCC(O)c1ccccc1)c1cccc(S(=O)(=O)N2CCOCC2)c1 (stereo not drawn) — lower, -18.1%
- Cc1nn(-c2ccccc2)c2c1c(C)c(CCC(=O)NCC1CCCO1)c(=O)n2C (stereo not drawn) — higher, 15.9%
- COc1cc(C(=O)NCCCNc2nc3cc(C)c(C)cc3cc2C#N)cc(OC)c1OC — higher, 43.3%
- CNC(=O)OCc1n(C)cc[n+]1C.[I-] — higher, 6.69%
- CCn1c(SCC(=O)c2ccc(C)cc2)nnc1-c1ccoc1C — lower, -9.05%
- O=C(Cc1ccc(Cl)cc1)Nc1cccc(C(=O)Nc2ccccc2C(=O)O)c1 — higher, 28.9%
- CCc1nc(SCC(=O)NNC(=O)c2ccc(OC)cc2)c2ccccc2n1 — higher, -2.28%
- CCN(Cc1cc(=O)n2ccsc2n1)Cc1nc2cc(OC)c(OC)cc2c(=O)[nH]1 — higher, 7.49%
- COC(=O)c1ccccc1NC(=O)Cn1c(CCC(=O)O)ccc1-c1cccs1 — higher, 8.8%
- CCOC(=O)c1c(-c2ccccc2)nnn1-c1nc(OC)nc(N2CCOCC2)n1 — lower, -12%
- CCN1/C(=C/C=C/c2oc3ccc(-c4ccccc4)cc3[n+]2CC)Oc2ccc(-c3ccccc3)cc21.CCOS(=O)(=O)[O-] — higher, -2.14%
- Cc1nnc(OC(C)C)c2nn(-c3ccccc3F)c(C)c12 — higher, 9.58%
- COc1ccc(-n2ncc3c(NCCCN4CCOCC4)ncnc32)cc1 — lower, -11.5%
- N[C@H]1CONC1=O — higher, 14.2%
- CCOC(=O)c1c(NC(=O)C(F)(OC)C(F)(F)F)sc(C(=O)N2CCCCC2)c1C (stereo not drawn) — lower, -42.5%
- O=C(CS(=O)(=O)Cc1ccccc1)Nc1ccccc1Cl — higher, 1.09%
- O=C(Nc1cccc(F)c1)C1CCCN(S(=O)(=O)c2ccccc2)C1 (stereo not drawn) — higher, -0.679%
- CN(C)CCOC(=O)CCc1ccccc1.Cl — higher, 1.4%
- CN(NC(=O)/C=C/C(=O)O)c1ncc(C(F)(F)F)cc1Cl — lower, -7.63%
- Nc1ccc2c(c1)C(=O)c1ccccc1C2=O — higher, 14.1%
- O=C(Nc1nc(-c2ccccn2)cs1)c1ccc(Cl)s1 — higher, -1.34%
- COc1ccc(-c2cc(C(=O)NCCc3ccc(S(N)(=O)=O)cc3)c3ccccc3n2)cc1 — higher, 11.3%
- O=C(C1=C[C@@H](c2coc3ccccc3c2=O)C[C@@H](OCc2ccc(CO)cc2)O1)N1CCCCCCC1 — lower, -66.5%
- Cc1ccc(C(=O)Nc2ccc(C(=O)/C=C/c3cccs3)cc2)cc1 — higher, 16.2%
- COc1cccc(N/C(N)=N/c2nc(C(F)(F)F)cc(C(F)(F)F)n2)c1 — higher, 1.67%
- Cc1ccc(S(=O)(=O)Nc2cccc(C(=O)NCCCN3CCOCC3)c2)cc1F — lower, -10.2%
- O=C(Nc1ccc(-c2nc3ccccc3c(=O)o2)cc1)c1ccco1 — lower, -4.43%
- N#Cc1c(/N=C/c2cccs2)sc2c1CCCCC2 — higher, -3.08%
- CCOC(=O)c1cc2c(=O)n3ccccc3nc2n(CC(C)C)c1=NC(=O)c1c(-c2c(F)cccc2Cl)noc1C — higher, 5.66%
- CC(Sc1nnc(NCc2ccccc2)s1)C(=O)Nc1ccc2c(c1)C(=O)c1ccccc1C2=O (stereo not drawn) — higher, 1.78%
- COC(=O)c1cc2c(ccn2-c2ccc(F)cc2)n1Cc1ccc(OC(C)=O)cc1 — higher, 6.74%
- O=C(Cc1ccccc1)NNc1c2ccccc2nc2ccccc12 — higher, 12.3%
- COc1ccccc1-n1cc2c([N+](=O)[O-])cc([N+](=O)[O-])cc2n1 — higher, 23.5%
- COc1ccc(CN2CCN(Cc3ccc4ccccc4c3)CC2)cc1OC.O=C(O)C(=O)O — lower, -67%
- CC(C)(C)NC(=O)c1ccccc1-c1nc(-c2ccccc2Cl)no1 — lower, -9.82%
- Brc1cccc(CNCC2CCCO2)c1 (stereo not drawn) — higher, 4.72%
- C/C(Cn1cnc([N+](=O)[O-])n1)=N/NC(=O)COc1ccccc1Cl — lower, -5.36%
- O=C(Nc1cc(Sc2ccccn2)cc([N+](=O)[O-])c1)c1cccc(Cl)c1 — higher, 2.34%
- c1ccc(-c2ccc(CN3CCSCC3)cc2)cc1 — higher, 7.72%
- O=C(CSc1nncn1-c1ccccc1)NC1CCCCC1 — higher, 14.9%
- O=C(CCCn1nnnc1CN1CCOCC1)N1CCN(c2ccccc2F)CC1 — higher, 11.5%
- NC(=NCCc1c[nH]c2ccccc12)NC(=O)c1ccc(F)cc1 — lower, -6.62%
- CCC(c1nnnn1C(C)(C)C)N(Cc1cccs1)Cc1cc2cc(C)c(C)cc2n2nnnc12 (stereo not drawn) — higher, 5.37%
- Cc1cccc(OCC(=O)N2CCN(C(=O)Cc3ccccc3)CC2)c1 — lower, -13.2%
- CCCn1c(=O)c(C(=O)Nc2cc(C)ccn2)c(O)c2ccccc21 — higher, 19.3%
- CC(=O)N(\C=C/C=C/C=C1\Sc2ccccc2C1=O)c1ccccc1 — higher, -3.47%
- CCN(CC)C(=O)Cn1cc(S(=O)(=O)CC(=O)N2CCCCCC2)c2ccccc21 — higher, 5.51%
- CCn1cnc2cc(NCc3ccc(C)cc3)ccc21 — lower, -40.4%
- COc1cc(/C=N/Nc2nc(C)cc(C)n2)cc(OC)c1OC — higher, 16.8%
- O=C(Nc1ncc2c(n1)-c1ccccc1CC2)c1ccc(F)cc1 — higher, -3.91%
- CCOC(=O)C1CCN(c2c(C(=O)c3ccccc3)cnc3ccc(CC)cc23)CC1 — lower, -5.99%
- CC(C)CCN=CC1=C(O)CC(c2ccccc2)CC1=O (stereo not drawn) — higher, 10.3%
- O=C1Nc2ccccc2/C1=C/c1ccc([N+](=O)[O-])cc1 — lower, -8.67%

Reference: publication PMC4336329 (PLoS ONE, 2015)
